# Experimental data as given in PubChem BioAssay (Tox21).
# The shares of active, inactive and inconclusive entries below differ from those in the screen. For some assays here: Potencies of inconclusive entries are doubtful fits and often do not repeat. The source made the active and inactive calls. Unless noted, the call rests on the fitted dose curve; in most records, active means well fitted curve in the direction sought with a large enough effect in the repeat runs; inconclusive means weak or mixed curves; inactive means no such curve, though single readings can be large; an effect the other way counts as inactive or inconclusive.
# Legend:
# [1] = tested on: estrogen-related receptor alpha (ERRalpha) with PGC-1alpha coactivator, human; experiment: qHTS assay to identify small molecule antagonists of the estrogen related receptor signaling pathway with the pleiotropic PPARgamma coactivator (PGC) (AID 1224821; calls by dose curve; further: nearly all actives have a fitted effect of over 50% in size; further: potency means the concentration at half of the fitted maximal effect)
# Summary of the method: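 Luminescent read-out (One-Glo, 30 min at room temperature) following 18 h treatment of PGC/ERR cells at 37 C with compounds delivered in DMSO. Cells had settled 6 h at 37 C/5% CO2 before dosing.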
# [2] = molecular target: Glucocorticoid receptor (Homo sapiens) (UniProt P04150); experiment: qHTS assay to identify small molecule agonists of the glucocorticoid receptor (GR) signaling pathway (AID 720691; active means well fitted activation curve with a large enough effect in the signal ratio in the repeat runs, not every such curve was filed as active; inconclusive means weak or mixed curves, or effect the other way; inactive means no such curve, though single readings can be large or run the other way; the % refers to the signal ratio; further: potency means the concentration at half of the fitted maximal effect; on activation: on the % scale 0 is the no-effect control and ±100 the full control effect); settings: GR-bla HeLa, beta-lactamase reporter ratio, 18 h; activation: at 62.4 µM (top of the series) unless noted
# Summary of the method: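 Agonist mode in a HeLa line carrying a GRE-controlled beta-lactamase reporter. Compounds act for 18 h at 37 C before a 2 h room-temperature FRET substrate step and fluorescence reading.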
# [3] = qHTS assay for small molecule activators of the heat shock response signaling pathway - cell viability counter screen (AID 743209); settings: HSE-bla HeLa viability, CellTiter-Glo luminescence, 5 h; activity change, negative = cytotoxicity: at 62.6 µM (top of the series); further: potency means the concentration at half of the fitted maximal effect; nearly all actives have a fitted effect of over 50% in size
# Summary of the method: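 First, HSE-bla HeLa cells were seeded at 1500 cells/well and kept overnight at 37 C. Next, compounds were pinned in and incubated 5 h. After the FRET substrate step, CellTiter-Glo was added and luminescence read 30 min later.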
# [4] = qHTS assay to identify small molecule agonists of the estrogen related receptor signaling pathway with the pleiotropic PPARgamma coactivator (PGC) from Tox21 10K library (AID 1224842); further: nearly all actives have a fitted effect of over 15% in size; further: potency means the concentration at half of the fitted maximal effect; on activation: on the % scale 0 is the no-effect control and ±100 the full control effect
# Summary of the method: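 Luminescence from One-Glo (30 min, room temperature) measured after PGC/ERR cells had 18 h at 37 C with pinned compound (23 nL in DMSO). Cells had been seeded at 2,000 per well and pre-incubated 6 h.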
# [5] = qHTS assay to identify small molecule antagonists of the retinoic acid receptor (RAR) signaling pathway (AID 1159552; further: nearly all actives have a fitted effect of over 50% in size; further: potency means the concentration at half of the fitted maximal effect)
# Summary of the method: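 Quantitative HTS in C3RL4 RARE-luciferase reporter cells. Compounds were added with 1 uM (final) retinol; luminescence was read after 6 hr.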
# [6] = qHTS assay for small molecule activators of the heat shock response signaling pathway (AID 743210; active means well fitted activation curve with a large enough effect in the signal ratio in the repeat runs, with a control signal flat, not every such curve was filed as active; inconclusive means weak or mixed curves; the % refers to the signal ratio; further: potency means the concentration at half of the fitted maximal effect); settings: HeLa HSE-bla reporter, beta-lactamase ratio, 5 h; activation: at 62.6 µM (top of the series) unless noted
# Summary of the method: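 HeLa HSE-bla cells, overnight plating; cpd in DMSO 5 h, 37 C; LiveBLAzer B/G FRET substrate 2.5 h RT; fluorescence intensity read.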
# [7] = molecular target: Bile acid receptor (Homo sapiens) (UniProt Q96RI1); experiment: qHTS assay to identify small molecule agonists of the farnesoid-X-receptor (FXR) signaling pathway (AID 743220; active means well fitted activation curve with a large enough effect in the signal ratio in the repeat runs, not every such curve was filed as active; inconclusive means weak or mixed curves, or effect the other way; the % refers to the signal ratio; further: on the % scale 0 is the no-effect control and ±100 the full control effect); settings: HEK293T FXR-UAS-bla, beta-lactamase FRET ratio, 16 h; activation: at 62.6 µM (top of the series)
# Summary of the method: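 Beta-lactamase reporter under UAS control in GeneBLAzer FXR HEK 293T cells (5000/well) measured with LiveBLAzer FRET substrate after 2 h at room temperature. Compound exposure lasted 16 h at 37C.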
# [8] = qHTS assay to identify small molecule antagonists of the estrogen related receptor (ERR) signaling pathway from Tox21 library (AID 1224848); further: on the % scale 0 is the no-effect control and ±100 the full control effect; nearly all actives have a fitted effect of over 50% in size
# Summary of the method: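 Antagonist-mode screen of the Tox21 10K library in an NTP-provided ERR reporter cell line; 18 h compound exposure at 37 C, luminescence measured with ONE-Glo.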
# [9] = A CellTox Green Cytotoxicity Assay to monitor cytotoxicity in HEK293 cells - 24 hour (AID 1224875); further: nearly all actives have a fitted effect of over 45% in size; further: potency means the concentration at half of the fitted maximal effect; on activity change: on the % scale 0 is the no-effect control and ±100 the full control effect
# Summary of the method: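 Cytotoxicity was tracked continuously in HEK293 cells by a DNA-binding dye excluded from viable cells. Compounds were transferred in DMSO 5 h after seeding; fluorescence was recorded at intervals up to 40 h.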
# [10] = qHTS RealTime-Glo MT Cell Viability Assay in HepG2 cells - 16 hour (AID 1224885)
# Summary of the method: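 HepG2 cells were seeded at 600 cells/well together with NanoLuc luciferase and a cell-permeant prosubstrate, preincubated 5 h at 37 C/5% CO2, then pin-dosed with compounds in DMSO. Nonlytic luminescence from viable cells was read at each time point.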
# [11] = qHTS assay to identify small molecule antagonists of the constitutive androstane receptor (CAR) signaling pathway - cell viability counter screen (AID 1224837); further: nearly all actives have a fitted effect of over 45% in size; further: potency means the concentration at half of the fitted maximal effect
# Summary of the method: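 Multiplexed cytotoxicity read-out for the CAR antagonist screen: double-stable HepG2-CYP2B6-hCAR cells co-treated with 50 nM CITCO (final) and compound over 15 concentrations, incubated 23 hr, then assessed by CellTiter-Fluor fluorescence.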
# [12] = qHTS assay to identify aromatase inhibitors - cell viability counter screen (AID 743084); settings: MCF-7 aro ERE viability, CellTiter-Fluor, 24 h; activity change, negative = cytotoxicity: at 70.3 µM (top of the series);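 further: cells stimulated with testosterone during compound exposure; nearly all actives have a fitted effect of over 55% in size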; further: potency means the concentration at half of the fitted maximal effect
# [13] = A CellTox Green Cytotoxicity Assay to monitor cytotoxicity in HepG2 cells - 16 hour (AID 1224876); further: nearly all actives have a fitted effect of over 45% in size; further: potency means the concentration at half of the fitted maximal effect
# Summary of the method: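 Real-time, homogeneous cytotoxicity readout: dead-cell DNA staining by CellTox Green in HepG2 monolayers, fluorescence measured at timed intervals up to 40 h of continuous compound exposure.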
# [14] = qHTS assay to identify small molecule antagonists of the androgen receptor (AR) signaling pathway using the MDA cell line in the presence of 0.5 nM R1881 - cell viability counter screen (AID 1259242); further: on the % scale 0 is the no-effect control and ±100 the full control effect; nearly all actives have a fitted effect of over 45% in size
# Summary of the method: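 Cytotoxicity toward MDA-kb2 cells is measured by CellTiter-Fluor live-cell protease fluorescence after 16 hr compound exposure at 37C in the presence of 0.5 nM R1881 stimulator.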
# [15] = molecular target: Estrogen receptor (Homo sapiens) (UniProt P03372); experiment: qHTS assay to identify small molecule agonists of the estrogen receptor alpha (ER-alpha) signaling pathway (AID 743075; calls by dose curve;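 further: HEK293 GripTite cells with ER-alpha and UAS-driven beta-lactamase reporter; potency means the concentration at half of the fitted maximal effect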); settings: HEK293 ER-alpha-UAS-bla, beta-lactamase FRET ratio, 18 h; activation: at 70.1 µM (top of the series) unless noted
# [16] = molecular target: Voltage-gated inwardly rectifying potassium channel KCNH2 (Homo sapiens) (UniProt Q12809); experiment: Human Ether-a-go-go-Related Gene (hERG) channel small molecule antagonists: fluorescence cell-based qHTS assay (AID 1671200)
# Summary of the method: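 Quantitative HTS in hERG-U2OS cells: thallium entry through the channel reports activity, read as continuous 480/540 nm fluorescence over 2 min after stimulus addition.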
# [17] = molecular target: Vitamin D3 receptor (Homo sapiens) (UniProt P11473); experiment: qHTS assay to identify small molecule agonists of the vitamin D receptor (VDR) signaling pathway (AID 743222; calls by dose curve; further: potency means the concentration at half of the fitted maximal effect); settings: HEK293T VDR-UAS-bla, beta-lactamase FRET ratio, 16 h; activation: at 63.5 µM (top of the series) unless noted
# Summary of the method: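 Quantitative HTS agonist-mode screen: compounds in DMSO were pin-transferred onto VDR-bla cells and incubated 16 h at 37C, 5% CO2. Reporter activity was detected with LiveBLAzer B/G FRET substrate after 2 h at room temperature.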
# [18] = molecular target: Androgen receptor (Homo sapiens) (UniProt P10275); experiment: qHTS assay to identify small molecule agonists of the androgen receptor (AR) signaling pathway (AID 743036; active means well fitted activation curve with a large enough effect in the signal ratio in the repeat runs, with a control signal flat, not every such curve was filed as active; inconclusive means weak or mixed curves, or effect the other way; inactive means no such curve, though single readings can be large or run the other way; the % refers to the signal ratio; further: potency means the concentration at half of the fitted maximal effect); settings: HEK293 AR-UAS-bla GripTite, beta-lactamase FRET ratio, 16 h; activation: at 62.4 µM (top of the series) unless noted
# Summary of the method: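 Reporter line: GeneBLAzer AR-UAS-bla-GripTite (HEK293). Steps: plate cells, 4 h rest, add compounds, 16 h at 37C, add LiveBLAzer B/G substrate, 2 h at RT, read fluorescence.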
# [19] = qHTS RealTime-Glo MT Cell Viability Assay in HEK293 cells - 0 hour (AID 1224880)
# Summary of the method: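 Nonlytic bioluminescent viability monitoring. HEK293 at 600 cells/well with reagent; 5 h settle; compound transfer by pintool; plates held at 37 C and read at set time points.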
# [20] = molecular target: Estrogen receptor (Homo sapiens) (UniProt P03372); experiment: qHTS assay to identify small molecule antagonists of the estrogen receptor alpha (ER-alpha) signaling pathway using the BG1 cell line in the presence of 0.1 nM 17-beta-estradiol (AID 1259244); further: nearly all actives have a fitted effect of over 50% in size; further: potency means the concentration at half of the fitted maximal effect
# Summary of the method: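 After 5 days in hormone-depleted medium (charcoal-stripped serum, no phenol red), VM7Luc4E2 cells were seeded, incubated 24 h, then co-treated with compound and 0.1 nM (final) estradiol for 22 h before luminescence detection.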
# Tags describe the fitted curve by direction and shape or compound fluorescence and quenching.
# Chain of UniProt P10275 (P10275 whole entry, looked up): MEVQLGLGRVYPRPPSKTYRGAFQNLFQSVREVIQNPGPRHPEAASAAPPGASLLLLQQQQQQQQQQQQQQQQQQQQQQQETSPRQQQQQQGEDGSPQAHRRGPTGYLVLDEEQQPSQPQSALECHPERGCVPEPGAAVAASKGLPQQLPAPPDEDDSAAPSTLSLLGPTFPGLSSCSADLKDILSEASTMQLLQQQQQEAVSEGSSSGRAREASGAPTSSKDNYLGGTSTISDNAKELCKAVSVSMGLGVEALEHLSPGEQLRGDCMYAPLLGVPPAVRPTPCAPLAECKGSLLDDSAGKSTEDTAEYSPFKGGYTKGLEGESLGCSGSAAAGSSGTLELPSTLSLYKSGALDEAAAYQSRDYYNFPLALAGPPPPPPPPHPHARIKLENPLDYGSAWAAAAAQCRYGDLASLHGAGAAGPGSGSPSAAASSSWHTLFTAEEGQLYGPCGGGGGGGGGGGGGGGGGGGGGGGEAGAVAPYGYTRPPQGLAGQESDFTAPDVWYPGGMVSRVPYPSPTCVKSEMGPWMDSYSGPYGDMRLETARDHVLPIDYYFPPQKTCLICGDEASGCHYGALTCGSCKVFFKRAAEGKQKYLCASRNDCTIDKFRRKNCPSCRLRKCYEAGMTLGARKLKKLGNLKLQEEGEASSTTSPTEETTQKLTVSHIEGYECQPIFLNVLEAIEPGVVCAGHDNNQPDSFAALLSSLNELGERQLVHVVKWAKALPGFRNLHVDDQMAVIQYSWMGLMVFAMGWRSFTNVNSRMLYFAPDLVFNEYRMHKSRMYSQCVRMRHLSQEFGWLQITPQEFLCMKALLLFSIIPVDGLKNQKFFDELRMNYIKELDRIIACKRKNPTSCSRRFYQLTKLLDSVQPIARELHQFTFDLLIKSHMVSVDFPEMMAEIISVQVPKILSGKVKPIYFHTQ
# Chain of UniProt Q96RI1 (Q96RI1 whole entry, looked up): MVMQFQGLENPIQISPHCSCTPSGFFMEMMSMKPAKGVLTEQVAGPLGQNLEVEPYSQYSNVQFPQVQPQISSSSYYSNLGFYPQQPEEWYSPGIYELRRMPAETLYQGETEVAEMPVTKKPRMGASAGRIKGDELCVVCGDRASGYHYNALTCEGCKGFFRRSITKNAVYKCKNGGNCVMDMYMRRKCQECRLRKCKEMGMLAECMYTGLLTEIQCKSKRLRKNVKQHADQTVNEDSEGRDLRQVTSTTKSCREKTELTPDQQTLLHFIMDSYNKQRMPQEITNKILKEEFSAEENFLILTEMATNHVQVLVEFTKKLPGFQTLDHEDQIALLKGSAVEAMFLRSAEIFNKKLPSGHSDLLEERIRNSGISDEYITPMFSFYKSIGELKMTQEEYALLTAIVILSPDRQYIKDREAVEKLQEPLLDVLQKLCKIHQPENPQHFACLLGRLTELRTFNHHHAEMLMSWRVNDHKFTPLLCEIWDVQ
# Chain of UniProt P03372 (P03372 whole entry, looked up): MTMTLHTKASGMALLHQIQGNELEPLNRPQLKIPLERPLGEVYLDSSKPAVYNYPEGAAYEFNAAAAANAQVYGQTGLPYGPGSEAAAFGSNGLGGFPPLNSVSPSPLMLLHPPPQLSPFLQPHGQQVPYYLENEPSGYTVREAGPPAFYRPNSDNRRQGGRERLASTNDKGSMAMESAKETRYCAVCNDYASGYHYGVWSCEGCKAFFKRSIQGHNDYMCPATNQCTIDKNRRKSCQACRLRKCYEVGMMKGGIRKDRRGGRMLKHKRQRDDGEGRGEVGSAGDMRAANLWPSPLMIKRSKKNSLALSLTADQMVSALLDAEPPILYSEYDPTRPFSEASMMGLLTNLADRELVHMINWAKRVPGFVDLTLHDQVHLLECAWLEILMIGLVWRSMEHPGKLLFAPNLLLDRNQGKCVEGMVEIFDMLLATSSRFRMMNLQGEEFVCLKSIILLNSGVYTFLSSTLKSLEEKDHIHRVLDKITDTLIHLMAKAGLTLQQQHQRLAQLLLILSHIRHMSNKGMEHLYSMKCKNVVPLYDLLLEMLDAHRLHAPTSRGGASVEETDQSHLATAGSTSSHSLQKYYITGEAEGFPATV
# Chain of UniProt P04150 (P04150 whole entry, looked up): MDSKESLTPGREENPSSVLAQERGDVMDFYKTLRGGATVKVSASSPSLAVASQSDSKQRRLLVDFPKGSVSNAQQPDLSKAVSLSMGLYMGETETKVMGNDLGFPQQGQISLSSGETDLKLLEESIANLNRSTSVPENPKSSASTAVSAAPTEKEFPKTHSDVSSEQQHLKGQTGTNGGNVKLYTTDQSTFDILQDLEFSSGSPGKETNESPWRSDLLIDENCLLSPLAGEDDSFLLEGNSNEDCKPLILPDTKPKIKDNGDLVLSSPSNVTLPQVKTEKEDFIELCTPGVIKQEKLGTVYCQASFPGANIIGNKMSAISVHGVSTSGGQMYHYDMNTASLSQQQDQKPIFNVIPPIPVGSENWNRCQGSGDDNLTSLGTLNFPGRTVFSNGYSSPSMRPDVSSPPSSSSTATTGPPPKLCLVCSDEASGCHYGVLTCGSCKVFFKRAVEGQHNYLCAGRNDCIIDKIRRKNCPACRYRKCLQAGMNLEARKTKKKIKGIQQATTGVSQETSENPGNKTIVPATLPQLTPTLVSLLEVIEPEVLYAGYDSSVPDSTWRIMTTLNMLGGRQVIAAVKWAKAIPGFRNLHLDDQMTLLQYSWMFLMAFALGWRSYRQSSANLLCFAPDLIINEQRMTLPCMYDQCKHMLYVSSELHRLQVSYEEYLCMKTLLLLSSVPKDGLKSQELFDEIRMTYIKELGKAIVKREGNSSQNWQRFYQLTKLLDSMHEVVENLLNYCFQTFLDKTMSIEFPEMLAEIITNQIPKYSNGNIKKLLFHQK
# Chain of UniProt P11473 (P11473 whole entry, looked up): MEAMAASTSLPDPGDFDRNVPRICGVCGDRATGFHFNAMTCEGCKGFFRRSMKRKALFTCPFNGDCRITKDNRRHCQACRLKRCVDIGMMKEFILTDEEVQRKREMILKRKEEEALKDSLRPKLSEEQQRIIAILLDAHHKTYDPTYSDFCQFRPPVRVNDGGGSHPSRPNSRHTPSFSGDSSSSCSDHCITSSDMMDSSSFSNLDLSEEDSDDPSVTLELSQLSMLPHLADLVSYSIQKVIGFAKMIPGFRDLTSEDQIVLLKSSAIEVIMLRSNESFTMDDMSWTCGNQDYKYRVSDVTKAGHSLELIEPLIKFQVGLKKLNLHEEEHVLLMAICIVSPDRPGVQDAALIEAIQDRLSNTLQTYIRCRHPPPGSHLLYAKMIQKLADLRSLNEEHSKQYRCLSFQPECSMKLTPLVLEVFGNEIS
# Chain of UniProt Q12809 (Q12809 whole entry, looked up): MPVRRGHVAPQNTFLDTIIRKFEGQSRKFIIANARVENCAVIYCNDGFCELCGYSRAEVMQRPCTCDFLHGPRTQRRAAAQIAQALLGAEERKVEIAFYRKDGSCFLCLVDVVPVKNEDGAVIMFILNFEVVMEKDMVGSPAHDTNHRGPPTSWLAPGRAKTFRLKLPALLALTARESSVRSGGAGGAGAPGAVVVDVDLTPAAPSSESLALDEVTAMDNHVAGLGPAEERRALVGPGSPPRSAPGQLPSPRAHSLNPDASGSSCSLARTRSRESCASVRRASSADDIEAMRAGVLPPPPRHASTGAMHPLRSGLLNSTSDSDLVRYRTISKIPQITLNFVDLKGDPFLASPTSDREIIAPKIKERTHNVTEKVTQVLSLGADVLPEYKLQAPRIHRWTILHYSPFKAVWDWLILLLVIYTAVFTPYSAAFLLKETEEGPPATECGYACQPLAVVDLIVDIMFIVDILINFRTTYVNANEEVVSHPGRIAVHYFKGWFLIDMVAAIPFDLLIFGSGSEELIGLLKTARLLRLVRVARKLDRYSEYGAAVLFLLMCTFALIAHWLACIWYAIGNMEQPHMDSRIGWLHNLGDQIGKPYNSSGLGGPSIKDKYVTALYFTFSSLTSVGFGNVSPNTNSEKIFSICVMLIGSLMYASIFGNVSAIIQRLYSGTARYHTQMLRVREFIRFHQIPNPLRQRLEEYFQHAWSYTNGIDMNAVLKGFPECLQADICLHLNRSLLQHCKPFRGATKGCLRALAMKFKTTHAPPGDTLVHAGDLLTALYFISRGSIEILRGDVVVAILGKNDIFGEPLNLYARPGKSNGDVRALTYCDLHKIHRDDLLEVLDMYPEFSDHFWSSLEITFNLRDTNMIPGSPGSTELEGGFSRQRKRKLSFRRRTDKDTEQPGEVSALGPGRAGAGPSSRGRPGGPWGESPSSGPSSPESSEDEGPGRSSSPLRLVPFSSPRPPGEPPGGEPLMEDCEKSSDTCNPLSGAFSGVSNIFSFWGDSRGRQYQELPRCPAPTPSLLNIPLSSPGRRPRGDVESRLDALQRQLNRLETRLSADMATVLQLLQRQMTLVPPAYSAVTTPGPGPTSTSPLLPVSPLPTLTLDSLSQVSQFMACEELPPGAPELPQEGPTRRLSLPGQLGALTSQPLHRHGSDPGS
structure (smiles),measurement,setting,value
CN1CC[C@@]2(C)c3cc(O)ccc3N(C)C12 (some centres undefined),Potency,[1],"inconclusive: 33.5 µM [inhibitor, single point]"
S=c1[nH]c2ccccc2[nH]1,Potency,[2],"inconclusive: 0.98 µM [falling, partial curve, poor fit]"
same,Potency,[3],"inconclusive: 4.9 µM [rising, partial curve, poor fit]"
same,Potency,[4],inactive
CCc1cccc(C)c1N,Potency,[5],inactive
C(COCC1CO1)OCC1CO1 (centres undefined),Potency,[2],inactive
same,Potency,[6],inconclusive: 54.9 µM [activator]
same,Potency,[7],inactive
CNC(=O)O/N=C/C(C)(C)SC,Potency,[7],inactive
same,Potency,[8],inactive
same,Potency,[9],inactive
COC1=CC(=O)O[C@@H](/C=C/c2ccccc2)C1,Potency,[4],"inconclusive: 17.5 µM [activator, partial curve]"
same,Potency,[10],inactive
O=[N+]([O-])/C=C/c1ccc2c(c1)OCO2,Potency,[1],inconclusive: 6.19 µM [inhibitor]
O=C(Cc1ccccc1)c1ccccc1,Potency,[6],inactive
same,Potency,[11],inactive
O=[N+]([O-])CCO,Potency,[12],"inconclusive: 72 µM [rising, partial curve, poor fit]"
same,Potency,[5],"inconclusive: 72 µM [inhibitor, partial curve, poor fit]"
same,Potency,[13],"inconclusive: 23 µM [activator, single point]"
same,Potency,[14],inactive
Nc1ccc2c(c1)Cc1ccccc1-2,Potency,[15],"inconclusive: 5.46 µM [falling, single point]"
same,Potency,[4],"inconclusive: 9.63 µM [activator, partial curve]"
COC(=O)C(C)N(C(=O)c1ccco1)c1c(C)cccc1C (centres undefined),Potency,[5],"inconclusive: 15.3 µM [inhibitor, partial curve, poor fit]"
FC(F)OC(F)(F)C(F)Cl (centres undefined),Potency,[16],inactive
Cc1c2ccncc2c(C)c2c1[nH]c1ccccc12,Potency,[1],inconclusive: 8.41 µM [inhibitor]
NC(=O)c1ccc(OCC(O)CN2CC=C(c3ccc(F)cc3)CC2)cc1 (centres undefined),Potency,[1],inactive
CN(CCCC(O)c1cccnc1)N=O (centres undefined),Potency,[5],inactive
NNC(N)=O,Potency,[10],inactive
CN1CC[C@]23c4c5ccc(O)c4O[C@H]2[C@@H](O)CC[C@H]3[C@H]1C5,Potency,[6],inconclusive: 71.3 µM [activator]
CCCCC(CC)COC(=O)CCCCC(=O)OCC(CC)CCCC (centres undefined),Potency,[5],inactive
Cc1ccc(-c2nc3ccc(C)cn3c2CC(=O)N(C)C)cc1,Potency,[2],active: 23.9 µM
same,Potency,[17],"inconclusive: 21.1 µM [rising, partial curve, poor fit]"
same,Potency,[4],active: 10.6 µM
same,Potency,[13],inactive
c1ccc(CCCN2CCN(CCOC(c3ccccc3)c3ccccc3)CC2)cc1,Potency,[1],inconclusive: 31 µM [inhibitor]
Oc1ccccc1Br,Potency,[5],inactive
CCOC(=O)COc1ccc(Cl)cc1Cl,Potency,[10],inactive
same,Potency,[14],inactive
N#CC(C#N)=Cc1ccc(O)c(O)c1,Potency,[18],"inconclusive: 6.74 µM [rising, full curve, poor fit]"
same,Potency,[15],"inconclusive: 8.48 µM [activator, full curve]"
same,Potency,[19],"inconclusive: 26.8 µM [falling, single point]"
CCC1(C2=NCCN2)Cc2ccccc2O1 (centres undefined),Potency,[20],inactive
CCOC(=O)c1ccccc1S(=O)(=O)NC(=O)Nc1nc(Cl)cc(OC)n1,Potency,[9],"inconclusive: 54.9 µM [activator, single point]"
same,Potency,[19],"inconclusive: 54.9 µM [rising, single point]"
NC1(c2ccccc2)CCCCC1,Potency,[11],"inconclusive: 48.1 µM [cytotoxic, partial curve]"
same,Potency,[14],inactive
COc1ccccc1N1CCNCC1,Potency,[12],inactive
CCCC[N+]1(C)CCCC1 (tested in a mixture with another compound),Potency,[13],inactive
same,Potency,[16],inactive
C=CCOC(=O)C(C)(C)OC(=O)c1cc(-n2c(=O)cc(C(F)(F)F)n(C)c2=O)ccc1Cl,Potency,[19],"inconclusive: 10.8 µM [rising, full curve]"
same,Potency,[20],"inconclusive: 30 µM [inhibitor, partial curve]"
O=C(O)c1nc(Cl)ccc1Cl,Potency,[11],inactive
O=C(CCCN1CCC(n2c(=O)[nH]c3ccccc32)CC1)c1ccc(F)cc1,Potency,[13],"inconclusive: 15.1 µM [activator, single point]"
same,Potency,[20],"inconclusive: 33.5 µM [inhibitor, single point]"
OP(O)c1ccccc1,Potency,[18],inactive
same,Potency,[12],inactive
same,activation,[17],inconclusive: -1.01% [at 81.1 µM]
COc1ncc(F)c2nc(S(=O)(=O)Nc3c(F)cccc3F)nn12,Potency,[18],"inconclusive: 39.1 µM [falling, single point]"
same,Potency,[10],inactive
